# Experimental data published in PubChem BioAssay AID485344 (National Center for Advancing Translational Sciences (NCATS), 2010).
# Among all 340,000 compounds or so, about 6,900 (2%) were called active. Cut-off read from the data, not from the text of the source: active = inhibition above about 30%; inactive = below that, where a call was filed. The entries are a selection whose mix differs from that of the whole data set. Where no call is shown, the source filed none.
# Biological target: D(2) dopamine receptor (Homo sapiens) (UniProt P14416)
# Assay: HTS Assay for Allosteric Antagonists of the Human D2 Dopamine Receptor: Primary Screen for Antagonists; note: 0% is about no effect
# Settings: HEK293 TREx D2 cells, calcium flux, dopamine EC80; at 10 µM; stronger effect = higher value
# In short: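 Inhibition of EC80 dopamine-driven calcium flux, recorded kinetically, defines activity here; cells are a tetracycline-induced HEK293 T-REx line expressing force-coupled D2.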
# UniProt P14416, sequence (P14416 whole entry, looked up): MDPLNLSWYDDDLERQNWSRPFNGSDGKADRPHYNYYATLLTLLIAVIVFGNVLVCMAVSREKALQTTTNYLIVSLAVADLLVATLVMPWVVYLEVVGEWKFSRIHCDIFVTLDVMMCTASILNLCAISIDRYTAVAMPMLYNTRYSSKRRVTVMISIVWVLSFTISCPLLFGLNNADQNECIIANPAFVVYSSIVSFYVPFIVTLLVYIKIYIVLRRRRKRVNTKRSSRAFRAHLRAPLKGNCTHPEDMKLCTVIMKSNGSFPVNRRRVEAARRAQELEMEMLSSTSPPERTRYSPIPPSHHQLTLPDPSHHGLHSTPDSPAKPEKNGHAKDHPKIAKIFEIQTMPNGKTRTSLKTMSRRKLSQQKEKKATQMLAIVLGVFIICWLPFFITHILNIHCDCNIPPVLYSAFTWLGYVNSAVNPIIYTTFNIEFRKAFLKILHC
row,SMILES,inhibition
1,Cc1cc(Cl)ccc1OCC(O)CN1C(C)CCCC1C (stereo not given),active: 31.2%
2,CCc1cc(=O)oc2cc(C)cc(OCC(=O)N3CCC(C(=O)NC(C)C)(c4ccccc4)CC3)c12,active: 53.1%
3,CC(=O)c1ccc(N2CCN(C(=O)CCCCn3c(=O)[nH]c4ccccc4c3=O)CC2)cc1,-10.3%
4,Cc1cccc(C(=O)N2CCc3cc(CNC(=O)c4ccnn4C)ccc32)c1,-15.1%
5,CCOc1ccccc1NC(=O)Cc1coc2c(C)c(C)ccc12,20.7%
6,COc1ccc(NC(=O)c2c(C(=O)Nc3ccccc3)sc3nc(C)cc(=O)n23)cc1,6.06%
7,CCOc1ccccc1NC(=O)CN1C(=O)COc2ccc(S(=O)(=O)N3CCCCCC3)cc21,2.74%
8,N#C/C(=C\c1ccc(F)cc1)C(=O)NCC1CCCO1 (stereo not given),18.3%
9,Cn1cnc(S(=O)(=O)N2CCCC(C(=O)NCc3ccccc3Cl)C2)c1 (stereo not given),14.5%
10,Cc1cc(=O)[nH]c2nnc(SCc3ccc(Cl)c(Cl)c3)n12,10.9%
11,COc1cccc(NC(=O)CSc2cc(=O)n(C)c3ccc(Cl)cc23)c1,2.34%
12,CCOC(=O)N1CCc2c(sc(NCc3sccc3C)c2C(=O)Nc2cc(OC)ccc2OC)C1,1.27%
13,CCCCN(C)CCCNC(=O)CN1C(=O)COc2ccc(S(=O)(=O)N3CCC(C)CC3)cc21,-6.52%
14,CCCCNC(=O)C1CCN(C(=O)N2CC(C)Oc3ccc(Cl)cc32)CC1 (stereo not given),-10.1%
15,CCOc1ccccc1-n1c(C)nc2cc(C(=O)O)ccc21,-4.33%
16,Cc1nc2c(C(=O)NCc3ccccc3Cl)c[nH]n2c(=O)c1Cc1cccc(Cl)c1,-18.6%
17,Cc1c(Cl)cccc1NC(=O)CC(c1cccs1)N1Cc2ccccc2C1=O (stereo not given),-7.13%
18,CC(NC(=O)CSc1n[nH]c(-c2ccccc2Cl)n1)c1nc2ccccc2n1C (stereo not given),-12.8%
19,CCOc1ccc(NC(=O)CN2CCN(Cc3ccccc3)S2(=O)=O)cc1,4.71%
20,CN(CCOCCOc1ccc(Cl)cc1Br)Cc1ccccc1,active: 39.9%
21,COc1c(C)cc(S(=O)(=O)Nc2cccc(-c3ccc(N4CCOCC4)nn3)c2)c(C)c1C,-2.39%
22,CCOC(=O)c1cccc(NC(=O)CC(c2cc(OC)c(OC)c(OC)c2)N2Cc3ccccc3C2=O)c1 (stereo not given),1.31%
23,CCN(CC)CCn1c(=S)[nH]c2cc(C(=O)NCc3ccc(C)cc3)ccc2c1=O,active: 36.4%
24,CCc1nn2c(-c3ccccc3OC)ccnc2c1-c1ccc(F)cc1,26.1%

row,SMILES,inhibition
1,CCn1c(=NC(=O)c2ccc(S(=O)(=O)N3CCCCC3)cc2)sc2cccc(OC)c21,15.6%
2,COc1ccccc1-c1cc(C(=O)NCc2cccs2)no1,active: 75.5%
3,COC(=O)c1ccc(NC(=O)CCc2c(C)nc3c(c(C)nn3-c3ccc(C)cc3)c2C)cc1,-2.05%
4,Cc1cccc(NC(=O)c2oc3c(c2C)-c2[nH]ncc2CC3)c1C,20%
5,COc1ccc(CCNc2nc(-c3ccc(C)cc3)cc(C(F)F)n2)cc1OC,13.1%
6,CCOC(=O)C1CCN(c2c(C(=O)c3ccc(OCC)cc3)cnc3ccc(OC)cc23)CC1,5.92%
7,Clc1cccc2c1Sc1ccccc1CC2N1CCNCC1 (stereo not given),active: 65.8%
8,CC1=C(C(N)=O)C(c2ccc(C(C)C)cc2)n2nc(SCc3ccccc3)nc2N1 (stereo not given),7%
9,COc1ccc(CCNC(=O)c2ccc3c(c2)N(Cc2ccc(C)cc2)CCS3)cc1OC,-5.47%
10,Cc1cc(C)n2nc(SCC(=O)Nc3cc(Cl)ccc3C)nc2n1,2.55%
11,CCOc1ccc(S(=O)(=O)N(CC(=O)Nc2cccnc2)c2ccccc2)cc1,-24.1%
12,Cc1cc(N2CCN(C)CC2)nc2ccc(NC(=O)Nc3ccccc3Br)cc12,19.6%
13,COc1ccc2c(c1)cc(CNc1ccc(OC)c(OC)c1)c(=O)n2CC(=O)Nc1ccc(F)cc1,11.3%
14,COc1ccccc1CNC(=O)CCc1c(C)c2ccc(OC)c(C)c2oc1=O,11.3%
15,Cc1c(C(=O)Nc2ccc(F)c(F)c2)oc2ccc(S(=O)(=O)N3CCCCC3)cc12,4.45%
16,O=S(=O)(NCC(c1ccco1)S(=O)(=O)c1ccccc1)c1ccccc1 (stereo not given),3.22%
17,COc1ccc(N2CCN(C(=O)CCc3c(C)nc4c(-c5ccccc5)c(C)nn4c3C)CC2)cc1,5.75%
18,COc1ccc(CNC(=O)Cn2c(=O)oc3cc(S(=O)(=O)N4CCCCCC4)ccc32)cc1,4.72%
19,COc1ccccc1CNC(=O)CCCCn1c(=O)c2ccccc2n(Cc2c(C)cc(C)cc2C)c1=O,1.34%
20,COc1ccc(NC(=O)NC2COc3ccccc3C2)c(OC)c1 (stereo not given),19.7%
21,COC(=O)c1ccc(CN2CCC(CO)(Cc3ccc(OC)cc3)CC2)cc1,active: 63.2%
22,O=C(Cn1ccn(-c2cccc(Cl)c2)c(=O)c1=O)NCCc1ccccc1,-10.9%
23,Cc1c(C(=O)Nc2nc(-c3ccc(F)cc3)ns2)oc2ccc(Br)cc12,8.53%
24,COc1ccc(CNC(=O)CCc2cn(Cc3cc(C)ccc3C)c3ccccc23)cc1OC,-1.88%

row,SMILES,inhibition
1,O=c1cc(-c2ccccc2)nc(SCc2nc(-c3ccc(C(F)(F)F)cc3)no2)[nH]1,19%
2,CS(=O)(=O)Nc1ccc(C(=O)N2CCN(c3ccccc3F)CC2)cc1,active: 63.5%
3,CCCOc1ccc(-c2nc3ccccc3c(=O)o2)cc1,-0.394%
4,CC(C)(C)c1ccc(-c2nc3cc(NC(=O)c4cc5ccccc5o4)ccc3o2)cc1,-12.6%
5,COc1cccc(CNC(=O)CCC2CCCN(C/C=C/c3ccccc3OC)C2)c1 (stereo not given),active: 32.5%
6,Cc1cccc(NC(=O)C2CCN(S(=O)(=O)c3cccc4nsnc34)CC2)c1,15.8%
7,CC1CCN(C(=O)Cn2cc(SCc3cccc(F)c3)c3ccccc32)CC1,9.76%
8,CCOC(=O)c1c(NC(=O)CS(=O)(=O)c2ccc(C)cc2)sc2c1CCC(C)C2 (stereo not given),-7.44%
9,CCc1ccccc1NC(=O)N1CCN(c2nnc(C)c3c(C)n(-c4ccccc4)nc23)CC1,-14.8%
10,Cc1ccc2nc(-c3ccccc3O)c(Nc3ccccc3C)n2c1,8.64%
11,O=C(C1CCC1)N1CCc2cc(S(=O)(=O)N3CCN(c4ccccc4)CC3)ccc21,5.25%
12,CCOc1ccc(-n2cc(C(=O)Nc3ccccc3OCC)c3cc(OC)c(OC)cc3c2=O)cc1,-2.46%
13,CC1CCN(c2nnc(-n3cccc3CNc3cccc(F)c3)s2)CC1,1.31%
14,COc1cc2ccccc2cc1C(=O)N1CCN(c2nc3c(C)cc(C)cc3s2)CC1,-21.9%
15,COc1ccccc1OCC(=O)Nc1nnc2n1CCS2,18.6%
16,CCCc1nnc(N2C(=O)c3oc4ccc(F)cc4c(=O)c3C2c2ccc(C(=O)OC)cc2)s1 (stereo not given),6.26%
17,O=C(COc1ccccc1F)Nc1ccccc1OCc1cc(=O)n2ccccc2n1,3.62%
18,CC(C)c1ccc(NC(=O)c2ccc(F)c(S(=O)(=O)N3CCCC3)c2)cc1,-19.1%
19,COC(=O)c1ccccc1NC(=O)CN(c1ccccc1OC)S(C)(=O)=O,-4.97%
20,Cc1ccc(NC(=O)CSc2nc(-c3ccc(F)cc3)nc3c2Cc2c(CO)cnc(C)c2O3)cc1C,-14.1%
21,CN(Cc1ccccc1)C(=O)CCS(=O)(=O)c1cc(Br)cc2c1N(C(=O)C1CC1)CC2,8.32%
22,O=C(NC(=O)N1CCN(c2cccc(Cl)c2)CC1)c1ccc(Cl)cc1,active: 56.8%
23,CCC1=Nc2cc(C(=O)NC(C)c3ccccc3)ccc2Sc2ccc(Cl)cc21 (stereo not given),-2.85%
24,COc1ccc2c(c1)CCc1sc(NC(=O)c3ccc(Cl)cc3)nc1-2,-2.33%

row,SMILES,inhibition
1,COCCCNC(=O)CN1C(=O)COc2ccc(S(=O)(=O)N3CCCCCC3)cc21,-0.116%
2,COc1ccc(-n2c(=O)c3ccccc3n(CC(=O)NCCc3ccccc3)c2=O)c(OC)c1,-4.72%
3,Cc1ccc(NC(=O)CCc2c(C)nc3c(-c4ccccc4)c(C)nn3c2C)c(C)c1,-12.2%
4,CC1CCN(S(=O)(=O)c2cn(CC(=O)Nc3ccc(F)c(Cl)c3)c(=O)c3ccccc23)CC1,16.5%
5,Cc1cccc(-n2cc(-c3ccccc3)c3c(NC(C)C)ncnc32)c1,11.6%
6,O=C(Nc1ccc(OC(F)(F)F)cc1)C1CCCN(S(=O)(=O)c2cccc3nonc23)C1 (stereo not given),11.9%
7,CC(=O)N1c2ccc(S(=O)(=O)NCC3CCC(C(=O)Nc4ccccc4C)CC3)cc2CC1C (stereo not given),7.34%
8,CCCCN(C)CCCNC(=O)c1cc(=O)[nH]c2ccc(S(=O)(=O)N3CCCCC3)cc12,-3.46%
9,C=CCN=C1S/C(=C\c2ccc(Cl)cc2)C(=O)N1CC=C,active: 79.6%
10,CCCN1C(=O)C(O)(CC(=O)c2ccc(CC)cc2)c2cc(Br)ccc21 (stereo not given),13%
11,Cc1cccc(OCC(=O)Nc2nonc2-c2ccc(Br)cc2)c1C,2.42%
12,CCOc1ccc(CC(=O)Nc2ccc3c(c2)N(C)C(=O)c2ccccc2S3)cc1OCC,-17.7%
13,O=C(COc1ccc(Cl)cc1)Nc1sc2c(c1C(=O)Nc1cccc(Cl)c1)CCCC2,-5.64%
14,CCc1ccc(OCC(=O)N(Cc2ccc(C)cc2)Cc2ccco2)cc1,-7.5%
15,Cc1cccc(C)c1-n1ncc(C(=O)NCc2ccc3c(c2)OCO3)c1C1CCN(C(=O)OC(C)(C)C)CC1,4.17%
16,CCn1cc(C(=O)NCCc2ccc(Cl)cc2)c(=O)c2cc(S(=O)(=O)N3CCCCCC3)ccc21,8.42%
17,Cc1nn(CCCC(=O)Nc2cccc(C(F)(F)F)c2)c(=O)c2nn(-c3ccccc3)c(C)c12,-12.4%
18,CCN(CC)CCN(C(=O)c1ccc2c(c1)CCCC2)c1nc2ccc(C)cc2s1,active: 46.5%
19,COc1cc(NC(=O)Cn2cnc3sc(C)c(S(=O)(=O)N4CCC(C)CC4)c3c2=O)cc(OC)c1OC,-8.47%
20,Cc1ccc2c(=O)c(C(=O)c3ccccc3)cn(CC(=O)Nc3ccccc3C)c2n1,-1.29%
21,O=C(COc1ccccc1F)Nc1ccc2nc(SCC(=O)N3CCCC3)sc2c1,-28%
22,Cc1nc(-c2ccc(S(=O)(=O)NCc3ccc(OC(C)C)cc3)cc2)co1,16.3%
23,COc1ccc(C(=O)NCCn2cc(SCC(=O)Nc3ccc(F)cc3)c3ccccc32)cc1,16.9%
